Laboratory results: PubChem BioAssay AID1346428 (National Center for Advancing Translational Sciences (NCATS), 2018)
Values joined by “and” are separate entries in the source; they are usually repeats but may differ in a detail not shown here. Equal values may be shown once. In all, about 48,000 compounds went through this assay and about 1,200 (2.5%) were called active. About 2% were inconclusive and are not listed.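 Rule for the calls: active = activation of at least 60% and not above a set upper limit (about 1 call in 100 departs from these limits); inconclusive = activation of 40% to 60%, or above that upper limit; inactive = activation under 40%.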 The list shows a part of the results.

Target: Probable G-protein coupled receptor 32 (Homo sapiens) (UniProt O75388)
Assay: qHTS for Agonists of Human Resolvin D1 Receptor DRV1; note: 0% is about no effect
Conditions: CHO-K1 GPR32 beta-arrestin PathHunter luminescence, 90 min; at 76.9 µM; stronger effect = higher value; zero percent set by DMSO-only wells
How it was run: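 Luminescent readout of beta-Gal complementation quantifies ligand-induced beta-arrestin association with GPR32 in CHO-K1 cells; 90 min compound incubation at 37 °C, detection 1 h at room temperature.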

UniProt O75388, sequence (O75388 whole entry, looked up): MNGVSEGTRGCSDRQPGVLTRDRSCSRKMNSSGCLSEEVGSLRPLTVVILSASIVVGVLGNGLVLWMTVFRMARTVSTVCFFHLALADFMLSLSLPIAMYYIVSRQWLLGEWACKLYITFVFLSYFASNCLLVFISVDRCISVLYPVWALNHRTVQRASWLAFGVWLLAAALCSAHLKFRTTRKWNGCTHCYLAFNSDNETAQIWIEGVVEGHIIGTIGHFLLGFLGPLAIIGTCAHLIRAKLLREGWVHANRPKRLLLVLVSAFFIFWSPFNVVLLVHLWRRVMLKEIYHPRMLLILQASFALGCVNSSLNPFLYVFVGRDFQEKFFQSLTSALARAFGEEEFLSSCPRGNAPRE

activation, inactive:
O=C(COc1ccccc1)N(Cc1cccnc1)c1nc2ccc(F)cc2s1 -23.7%, CCOc1cc(-c2nc(-c3ccc(Br)cc3)no2)cc(OCC)c1OCC 0.03%, COc1ccc(CNC(=O)CN(c2cc(C)cc(C)c2)S(=O)(=O)c2c(C)[nH]c(=O)[nH]c2=O)cc1 -12.2%, COCCCNC(=O)c1ccc2c(=O)n(Cc3ccc(OC)cc3)c(=O)[nH]c2c1 42.1%, O=C(CN1C(=O)COc2ccc(S(=O)(=O)N3CCOCC3)cc21)N1CCN(c2ccccc2)CC1 -6.14%, Cc1nc(-c2ccc(C)c(S(=O)(=O)N3CCC(C(=O)NCc4ccc(Cl)cc4)CC3)c2)no1 -7.86%, COc1ccc(CCNC(=O)C2CCCN(c3nc4c(C)cc(C)cc4s3)C2)cc1OC (stereo not drawn) -6.71%, CSc1ccc2c(c1)C(N1CCN(C)CC1)Cc1ccccc1S2 (stereo not drawn) 39.7% and -31.1%, COc1ccc(C2=C(C)C(=O)N(Cc3ccc(C(=O)NCc4ccc(C)cc4)cc3)S2(=O)=O)cc1 7.28%, CC(C)(C)C(=O)Oc1ccc(S(=O)(=O)Nc2ccccc2C(=O)NCC(=O)O)cc1 -11.2%, Cc1cccc(CN2CCN(CC(=O)NCc3ccc(Cl)cc3)C2=O)c1 23.7%, Cc1ccc(S(=O)(=O)C(CNC(=O)c2ccccc2F)c2cccs2)cc1 (stereo not drawn) -7.26%, Cc1cccc(CSc2nc3c(c(=O)[nH]2)C(c2cccc(O)c2)CC(=O)N3)c1 (stereo not drawn) 12.2%, CCOC(=O)c1c(NC(=O)c2cc(C(C)C)on2)sc(C)c1C -3.09%, CCOc1ccc(-n2c(=O)c3c4c(sc3n(CC(=O)Nc3cccc(C(F)(F)F)c3)c2=O)CCCCC4)cc1 4.46%, COc1ccccc1NC(=O)C(Cc1ccccc1)NS(=O)(=O)c1ccc2c(c1)c(=O)n(C)c(=O)n2C (stereo not drawn) -0.883%, O=C(Nc1ccc2oc(-c3ccc4ccccc4c3)nc2c1)c1ccccc1F -7.17%, O=C(OCC1CCCO1)c1ccc2c(c1)N(Cc1ccccc1Cl)C(=O)c1ccccc1S2(=O)=O (stereo not drawn) -0.438%, O=C(COc1ccccc1)Nc1nnc(S(=O)(=O)N2CCCC2)s1 6.3%, CN(Cc1ccccc1)c1ncnc2onc(-c3ccc(F)cc3)c12 34.1%, CCCCOc1cccc(NC(=O)CSc2nnc(C)s2)c1 12.6%, O=C(NCc1ccc(F)cc1)c1c(O)nc2ccccn2c1=O -5.13%, CCCC(=O)OCc1cnc(C)c2oc(=O)c(C(=O)Nc3ccccc3)cc12 -9.3%, O=C(Nc1ccccc1)c1ccc(Br)c(S(=O)(=O)N2CCCCC2)c1 -16%, COc1ccc(NC(=O)COc2ccc(S(=O)(=O)NC3CCCCC3)cc2)cc1OC 38.1%, COc1ccc(OC)c(NC(=O)CSc2nc3ccccc3nc2N2CCCCC2)c1 -20.5%, COc1ccc(Br)cc1C1Sc2ccccc2NC2=C1C(=O)c1ccccc12 (stereo not drawn) -19%, O=C(Nc1cccc(Cl)c1)c1cnc[nH]1 43.3%, Cc1ccc2c(=O)cc(CSCC(=O)Nc3nnc(C)s3)[nH]c2c1 -4%, CC(NC(=O)CCNS(=O)(=O)c1cccc2nsnc12)c1ccccc1 (stereo not drawn) 11%, CCOCCCn1c(SCC(=O)Nc2ccc(C)cc2)nc2ccccc2c1=O -27.7%, Cc1cc(C)n(C(C)CC(=O)NCc2ccc(N(C)C)cc2)n1 (stereo not drawn) -2.1%, COC(=O)c1cc2sccc2n1Cc1nc(-c2ccc(Cl)cc2)oc1C 6.59%, CCc1ccccc1NC(=O)c1ccc2c(c1)N(Cc1cc(C)ccc1C)C(=O)c1ccccc1S2(=O)=O -3.33%, COc1cc(Cl)c(C)cc1NC(=O)Cn1ncc2c([nH]c3ccccc32)c1=O -11.5%, COc1cccc(C(c2c(O)cc(C)n(Cc3ccco3)c2=O)N2CCN(c3ccccc3)CC2)c1 (stereo not drawn) -16.7%, O=C(CSc1nccn1Cc1ccc(Cl)cc1)Nc1ccc2c(c1)OCCO2 -7.31%, COc1ccccc1NC(=O)C1=C(C)Nc2nc(SCc3ccccc3C)nn2C1CC(C)C (stereo not drawn) -2.82%, COc1ccc(CNC(=O)C(C)n2ccc3cc(S(=O)(=O)N4CCCC4)ccc32)cc1OC (stereo not drawn) -3.87%, Cc1cc(C)c(NC(=O)C2CCN(c3nnc(C)c4c(C)n(-c5ccccc5)nc34)CC2)c(C)c1 -23.6%, COc1ccc(-n2cc(-c3ccccc3)c3c(NCCc4ccc(OC)c(OC)c4)ncnc32)cc1 -33.7%, CCN1CCN(c2cc3c(cc2F)c(=O)c(S(=O)(=O)c2cc(C)cc(C)c2)cn3CC)CC1 -5.09%, CCc1ccc(N2CCn3c2nc2c3c(=O)n(CCCc3ccccc3)c(=O)n2C)cc1 12.5%, CCOc1ccc(-c2nonc2NC(=O)COc2ccccc2)cc1 -0.727%, CCCc1cnc2c(c1SCC(=O)Nc1cccc(C)c1C)c(=O)n(C)c(=O)n2C -1.2%, CCOC(=O)c1ccc(NC(=O)c2c(NCc3cc(OC)c(OC)cc3OC)sc3c2CCCC3)cc1 -15%, CC1=C(C(=O)OCC2CCCCC2)C(c2cccc(F)c2F)CC(=O)N1 (stereo not drawn) 0.935%, COc1ccc(NC(=O)Cn2nnc(C(=O)Nc3ccc(C)c(F)c3)c2N)cc1Cl -8.75%, Cn1c(=O)oc2cc(S(=O)(=O)N3CCCC(C(=O)N4CCN(c5cccc(Cl)c5)CC4)C3)ccc21 (stereo not drawn) 37.3%, O=C(NCCCCc1ccccc1)c1nn(-c2ccccc2)nc1CO -7.72%, Cc1ccc(-n2c(-c3ccco3)nc3c(cnn3-c3ccc(C)cc3)c2=O)cc1 0.371%, O=C(Cc1ccccc1F)N1CCC(c2nc3c(nnn3Cc3cccc(Cl)c3)c(=O)[nH]2)CC1 -18.9%, Cc1cc(C)cc(OCCn2c(CCNC(=O)C3CCCCC3)nc3ccccc32)c1 -19.5%
